Test results: paper PMC6919601, “Identification of Plasmodium dipeptidyl aminopeptidase allosteric inhibitors by high throughput screening” (PLoS ONE, 2019)
The campaign covered roughly 110,000 compounds. About 230 (0.21%) showed an effect of 50% or more. Some of the results follow.

Biological target: DPAP1 (Plasmodium falciparum, UniProt Q8IIJ9)
Assay: primary screen, percent inhibition; read by cleavage of a fluorogenic dipeptide substrate; higher = more effect of the substance
Set-up: species or system P. falciparum D10 trophozoite lysates; single well
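Also: 30 min substrate incubation versus DMSO and 10 µM JCP410 controls.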

Chain of DPAP1 (Q8IIJ9 whole entry, looked up): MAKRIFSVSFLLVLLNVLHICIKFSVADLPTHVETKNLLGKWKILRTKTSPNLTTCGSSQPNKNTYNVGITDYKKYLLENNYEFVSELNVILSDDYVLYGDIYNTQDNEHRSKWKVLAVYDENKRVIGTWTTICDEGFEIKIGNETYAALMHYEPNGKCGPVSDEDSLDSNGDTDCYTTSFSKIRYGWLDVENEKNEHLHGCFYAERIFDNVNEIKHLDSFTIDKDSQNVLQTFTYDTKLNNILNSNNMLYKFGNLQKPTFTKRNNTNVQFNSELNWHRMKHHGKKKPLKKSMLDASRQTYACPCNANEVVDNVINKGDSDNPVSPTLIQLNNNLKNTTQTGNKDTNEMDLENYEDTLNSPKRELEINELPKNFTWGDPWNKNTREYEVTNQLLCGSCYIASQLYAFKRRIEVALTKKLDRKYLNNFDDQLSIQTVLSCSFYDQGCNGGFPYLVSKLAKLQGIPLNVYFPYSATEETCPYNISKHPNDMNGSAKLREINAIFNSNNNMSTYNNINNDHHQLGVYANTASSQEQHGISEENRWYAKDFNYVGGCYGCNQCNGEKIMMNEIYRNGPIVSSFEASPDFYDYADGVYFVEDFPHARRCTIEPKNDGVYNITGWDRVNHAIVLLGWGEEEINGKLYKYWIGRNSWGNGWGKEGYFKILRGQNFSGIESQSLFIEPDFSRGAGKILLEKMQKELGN

Row | Structure (SMILES) | % Inhibition @ 10 uM
1 | Cc1cc(C)cc(OC(C)C(=O)N(Cc2ccco2)C2CCS(=O)(=O)C2)c1 (stereo not drawn) | 0.569%
2 | COc1cc(C(=O)N2CCN(C(=O)c3cc(-c4cccs4)[nH]n3)CC2)cc(OC)c1OC | -2.68%
3 | CCc1ccc(NS(=O)(=O)c2ccc(OC)cc2)cc1 | -1.62%
4 | CC1CCN(S(=O)(=O)c2ccc(NC(=O)Cc3ccc(F)cc3)cc2)CC1 | 1.83%
5 | Cc1nn(C)c(C(=O)N2CCc3ccccc32)c1Br | 5.03%
6 | Cc1ccc(OCc2nnc3sc(NC(=O)c4ccccc4)nn23)cc1 | 3.3%
7 | CC1CCN(Cc2nc3c(c(=O)n(C)c(=O)n3C)n2CC(=O)c2ccccc2)CC1 | 0.317%
8 | O=C1c2ccccc2C(=O)N1c1cnc(O)nc1O | -9.34%
9 | C=CCNC(=O)CN(c1ccccc1CC)S(=O)(=O)c1ccccc1 | -3.83%
10 | Cc1ccccc1OCc1nc(C#N)c(NCCN2CCOCC2)o1 | -4.6%
11 | O=C(c1ccc([N+](=O)[O-])cc1Cl)N1CCCC1 | 2.13%
12 | COc1ccc(C2=NOC(C(=O)N3CCC(Cc4ccccc4)CC3)C2)cc1 (stereo not drawn) | 1.42%
13 | Oc1nncn2c1c(-n1cccc1)c1c3c(sc12)CCCC3 | -3.34%
14 | Cc1cccc(-n2c(SCC(N)=O)nnc2-c2cccs2)c1C | -4.97%
15 | C[n+]1cccc(C2CCCCN2C(=O)C2(c3ccccc3)CCCC2)c1 (stereo not drawn) | 0.222%
16 | COc1cccc(-n2c(SCC(=O)NCC3CCCO3)nc3nnc(C)c-3c2N)c1 (stereo not drawn) | -2.17%
17 | Cc1cc(/C=C2/SC(=O)N(C)C2=O)c(C)n1-c1ccccc1 | -1.59%
18 | CN1CCN(C(=O)Cn2ncc3c4ccccc4n(Cc4cccc(Cl)c4)c3c2=O)CC1 | -1.58%
19 | Fc1ccc(-c2nnc3ccc(N4CCN(C(=S)NCc5ccccc5)CC4)nn23)cc1 | 1.89%
20 | COc1cccc(NC(=O)CN(c2ccccc2F)S(=O)(=O)c2ccccc2)c1 | -3.25%
21 | COc1cc(OC)c(C2Nc3ccc(C)cc3-c3cc(C)nn32)cc1OC (stereo not drawn) | -9.31%
22 | COc1ccc(C(=O)Nc2ccccc2C(N)=O)cc1Br | -5.32%
23 | CN1CCN(CCCNC(=O)CCn2cnc3onc(-c4ccc(F)cc4)c3c2=O)CC1 | -3.08%
24 | Cc1ccc(N2C(=O)NC(=O)/C(=C/Nc3cc(C(=O)O)ccc3C)C2=O)cc1 | 5.89%
25 | CS(=O)(=O)CCC(C(=O)Nc1ccccc1)N1C(=O)c2ccccc2C1=O (stereo not drawn) | -0.425%

Row | Structure (SMILES) | % Inhibition @ 10 uM
26 | Cc1cccc(CCNC(=O)c2ccc(C/N=c3/c(N4CCCCC4)c(O)c3=O)cc2)c1 | -4.04%
27 | CCSc1nc(=O)c2c(n1C)NC(=O)CC2c1cc(F)cc(F)c1 (stereo not drawn) | 0.596%
28 | Cc1cc(Cl)ccc1OCC(=O)Nc1ccc(S(=O)(=O)N2CCOCC2)cc1 | -2.03%
29 | Cc1nc2ccsc2c(=O)n1-c1cccc(Cl)c1 | 1.15%
30 | O=C(CN1C(=O)C2C3c4ccccc4C(c4ccccc43)C2C1=O)Nc1cccc(O)c1 (stereo not drawn) | 0.605%
31 | Cc1noc(C)c1S(=O)(=O)N(C)CC(=O)NCc1ccccc1 | 12.7%
32 | COC(=O)c1c(NC(=O)C2COc3ccccc3O2)sc2c1CCCC2 (stereo not drawn) | -2.6%
33 | O=C(Cn1ncc2c(=O)oc3ccccc3c21)N1CCC(N2CCCCC2)CC1 | -1.03%
34 | COc1cccc(C2CC(C(F)(F)F)n3ncc(C(=O)Nc4ccc(Br)cc4)c3N2)c1 (stereo not drawn) | -1.65%
35 | CC1=C(C)CC(C(=O)Nc2cccc(C)c2)C(C(=O)O)C1 (stereo not drawn) | -0.872%
36 | OC(COc1ccc2c(c1)OCO2)CN1CCN(C(c2ccccc2)c2ccccc2)CC1 (stereo not drawn) | 3.1%
37 | Cc1nc2c3ccccc3n3c(CCCC(=O)O)nnc3n2n1 | -2.92%
38 | Cc1ccsc1CN(C(=O)COc1cc(C)c(Cl)c(C)c1)C1CCS(=O)(=O)C1 (stereo not drawn) | -2.85%
39 | COc1cccc(S(=O)(=O)Nc2ccc(C(=O)N3CCCC3)cc2)c1 | -1.26%
40 | CC(=O)Nc1ccc(NC(=O)C2CCCCC2C(=O)O)cc1 (stereo not drawn) | 0.687%
41 | Cc1sc(NC(=O)c2ccc(F)cc2)c(C(N)=O)c1-c1ccccc1 | 9.06%
42 | CC#CCCC(=O)Nc1cccc(C(=O)O)c1 | -1.26%
43 | Cc1cccc(C)c1-n1nnnc1C1(Nc2cccc(O)c2)CCCCC1 | -2.66%
44 | NS(=O)(=O)c1ccc(Nc2nc(-c3ccc(Cl)cc3)cs2)cc1 | 2.5%
45 | O=C(Cc1cccs1)Nc1nc2ccccc2s1 | 1.7%
46 | CCc1ccc(NC(=O)CCCC(=O)Nc2ccc(CC)cc2)cc1 | 3.92%
47 | CSC1=N/C(=C\c2ccc(OCC(=O)O)cc2)C(=O)S1 | -2.65%
48 | O=C1C(Nc2cccc(O)c2)=C(N2CCCCC2)C(=O)c2ccccc21 | 0.162%
49 | Cc1ccsc1CN(C(=O)C1C(C=C(Cl)Cl)C1(C)C)C1CCS(=O)(=O)C1 (stereo not drawn) | 0.569%
50 | O=C(OCc1nc2ccccc2[nH]1)c1cc(F)c(F)c(F)c1F | -2.19%

Row | Structure (SMILES) | % Inhibition @ 10 uM
51 | Fc1ccc(CNc2ncnc3c2nc2n3CCCCC2)cc1 | 3.24%
52 | O=C(Cc1nn[nH]n1)NCc1ccccc1Cl | -1.59%
53 | CN(CC(O)c1ccccc1)C1CCC(c2ccccc2)CC1 (stereo not drawn) | -3.8%
54 | CCc1ccc2oc(C(=O)NCc3ccncc3)cc(=O)c2c1 | -5.08%
55 | CC(C)(C)c1ccc(S(=O)(=O)NCc2ccc(C(=O)NCCc3ccccc3)cc2)cc1 | -1.99%
56 | Cc1cccc(-c2noc(CN(C(=O)C(C)(C)C)C3CCCCC3)n2)c1 | 3.74%
57 | N#CCCN1c2ccccc2Sc2ccc(C(F)(F)F)cc21 | -5.44%
58 | COc1ccc(CNc2oc(COc3ccccc3C)nc2C#N)cc1 | 4.74%
59 | Cc1cccn2c(=O)c3cc(C(=O)N(Cc4ccccc4)C(C)C)n(C)c3nc12 | 1.68%
60 | O=c1c2cc(-c3ccccc3)sc2nnn1Cc1ccc(F)cc1 | 7.04%
61 | CCn1c(C)cc(/C=C/c2oc3ccccc3[n+]2CC)c1C | 8.97%
62 | CN1CCN(Cc2ccc3ccccc3c2)CC1 | -6.82%
63 | CS(=O)(=O)C1=NSC2=NC(=O)/C(=C\c3cc(Cl)c(O)c(Cl)c3)C(=N)N21 | 1.85%
64 | CN(C)CCN1C(=O)C(O)=C(C(=O)c2cc3ccccc3o2)C1c1ccco1 (stereo not drawn) | 2.1%
65 | Cc1nn(C)c2c1c(-c1ccccc1)cc(=O)n2Cc1ccc(C#N)cc1 | 5.73%
66 | COc1cc2c(cc1OC)-c1nc3ccccc3c(=O)n1C(C)(C)C2 | 5.08%
67 | O=C1NC(=O)NC2(N1)C(=O)Nc1ccccc12 | 4.84%
68 | NC(=O)COc1ccccc1/C=C1/SC(=O)N(Cc2ccc(F)cc2)C1=O | 5.31%
69 | O=c1c2ccccc2n2c(-c3ccsc3)nnc2n1CCc1ccccc1 | -7.29%
70 | CCOC(=O)C1=c2s/c(=C/c3ccccc3F)c(=O)n2C(N)=C(C#N)C1c1ccccc1F (stereo not drawn) | -0.053%
71 | Cc1cccc(Nc2ncnc3c2cnn3C)n1 | -1.1%
72 | O=C(Cn1ncc2c3ccccc3n(Cc3ccccc3)c2c1=O)NCCN1CCCCCC1 | 0.137%
73 | CCCCC(=O)NC1(C(F)(F)F)C(=O)N(C2CCCCC2)C(C)=C1C(=O)OCC (stereo not drawn) | 3.54%
74 | N#CC1=C(N)Oc2ccc(N)cc2C1c1ccccc1F (stereo not drawn) | 2.38%
75 | O=C(c1ccc(Cl)cc1)N1CCN(c2ccc(F)cc2)CC1 | -2.78%

Row | Structure (SMILES) | % Inhibition @ 10 uM
76 | CC(=O)c1ccc(OC(C)C)c(CN2CCCCC2)c1 | 0.962%
77 | CCOC(=O)c1c(N/C(=C/C(=O)c2cccc(OC)c2)C(=O)O)sc2c1CCCC2 | -4.03%
78 | COc1cc2c(C(=O)N(C)C3CCCCC3)c(-c3ccc(SC)cc3)n(C)c(=O)c2cc1OC | 0.231%
79 | COc1ccc(NC(c2ccccn2)c2ccc3cccnc3c2O)cc1 (stereo not drawn) | -6.44%
80 | C=C1c2ccc(C)cc2NC(=O)N1c1ccccc1 | -3.37%
81 | CCCN(Cc1ccccc1O)CC1CC1 | 3.35%
82 | COc1ccc(CCN2CC(C(=O)O)CC2=O)cc1 (stereo not drawn) | -5.38%
83 | CCOc1cc(C2CC(=O)NC3=C2C(=O)CC(C)(C)C3)ccc1O (stereo not drawn) | -1.92%
84 | COc1cccc(-c2cc(C(=O)O)c3cc(C)cc(C)c3n2)c1 | -4.89%
85 | CCN1CCC2(CC1)OC(=O)C(C)=C2C(=O)NCCCN1CCC(Cc2ccccc2)CC1 | -2.13%
86 | Fc1ccc(CN2CCN(c3ccccc3)CC2)cc1F | 0.708%
87 | O=C(O)/C(=C/c1ccc2c(c1)OCO2)NC(=O)c1ccc(Br)cc1 | 23.4%
88 | O=C(C1CC1)N1CCN(c2ccc(F)cc2)CC1 | -4.03%
89 | COC(=O)c1c(NC2=NS(=O)(=O)c3ccccc32)sc2c1CCCC2 | 3.93%
90 | Cc1ccc(C)c(-c2csc(Nc3ccc(C)c(Cl)c3)n2)c1 | 0.912%
91 | Cc1ccc(-c2nnc(-c3cccs3)o2)cc1 | -3.77%
92 | CN1CCN(Cc2nnc(S)n2-c2cccc(C(F)(F)F)c2)CC1 | -0.687%
93 | O=C1NC(=O)N(Cc2ccccc2)C(=O)/C1=C/NC12CC3CC(CC(C3)C1)C2 | -4.67%
94 | COc1ccc(-c2noc(CN(C(=O)COc3cc(C)cc(C)c3)C(C)C)n2)cc1 | 4.41%
95 | O=C(Cc1ccccc1)N1CCN(C(=O)Cc2ccccc2)CC1 | -2.03%
96 | CC(C)C(=O)Nc1ccc2c(c1)C(=O)N(c1ccccc1)C2=O | -1.65%
97 | CSc1nc2sc3c(c2c2nnc(S)n12)CCN(Cc1ccccc1)C3 | 1.72%
98 | Sc1nc(NCc2ccc3c(c2)OCO3)c2ccccc2n1 | -2.56%
99 | CCOC(=O)c1c(N2C(=O)C3CC(C)=C(C)CC3C2=O)sc2c1CCCC2 (stereo not drawn) | 17%
